Some of the results follow. Viral Rep nickase domains cut single-stranded DNA in vitro for 1 h at 37 °C with 3 µM enzyme; only the middle of the 90-letter strands is printed. A value is the log2 ratio of uncut reads to the pool without enzyme; strong cutting gives strongly negative numbers. There is no active / inactive call. Shares of all reads are compared; where an enzyme cuts many sequences, the uncut ones exceed 0.
tested on: T1, Rep nickase domain of chickpea chlorotic dwarf virus; assay: uncleaved DNA left, log2 of reads against the no-enzyme library (log2 ratio); higher = less cleavage (more negative = more Rep cleavage of the k-mer); sequences stand for … in CTCGTCCG…ACCGGAGA
T1 sequence (Rep 1-124, printed without the tag): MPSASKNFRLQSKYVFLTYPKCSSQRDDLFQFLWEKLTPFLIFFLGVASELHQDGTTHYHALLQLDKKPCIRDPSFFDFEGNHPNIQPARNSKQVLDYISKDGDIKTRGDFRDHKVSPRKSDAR
Procedure: (§1)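 A pool of 90-nt single-stranded DNAs with seven random bases just before the constant AC of the nick site (name = the seven bases) was cut by 3 µM recombinant His6-SUMO-tagged Rep nickase domain (300 nM DNA, 50 mM HEPES pH 8.0, 50 mM NaCl, 1 mM MnCl2, 1 h, 37 °C, three replicates). Uncut DNA was amplified and sequenced.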

| Sequence | uncleaved DNA left (log2) |
| --- | --- |
| TGGGTCT | 1.54 |
| ATAGGTG | -0.118 |
| TCTTAGA | -0.113 |
| AGGACTC | 1.45 |
| CGGACTT | 1.68 |
| CCCTGTG | -0.112 |
| TCGCGTA | -0.926 |
| AATACGT | -0.653 |
| GAACAAG | -0.377 |
| TACTAAG | -0.612 |
| TGTCCGC | -0.362 |
| AACCGTC | -0.607 |
| TCAGCAA | -0.478 |
| AATTAAG | -0.0884 |
| TCGATCG | -0.634 |
| CTGTGCA | -0.661 |
| CCTTCGT | -1.03 |
| TTGGGAC | 1.94 |
| GTCCCCA | 0.804 |
| CTGGTCT | -1.11 |

| Sequence | uncleaved DNA left (log2) |
| --- | --- |
| TCAATTT | -2.67 |
| GCCTCTT | -1.13 |
| TCAGGAG | 0.862 |
| TGCGTAT | -0.808 |
| GGCTCTT | 0.547 |
| AGGACAG | 1.85 |
| ATCACCG | -0.174 |
| TTCCACT | -2.18 |
| AATAGGA | 0.484 |
| TCCGGGT | 0.751 |
| ACGAATC | -0.0348 |
| AAAGTTA | -1.57 |
| TGGTTAG | -0.331 |
| CCATCTA | -1.34 |
| TACTGCG | 0.806 |
| CAGAGAA | 0.15 |
| GCGCCAG | 0.385 |
| ACTTAAT | -1.2 |
| CCTCGTC | -0.494 |
| TAAAGTA | -2.69 |

tested on: T2, Rep nickase domain of faba bean necrotic yellows virus; assay: as above
T2 sequence (Rep 1-98, printed without the tag): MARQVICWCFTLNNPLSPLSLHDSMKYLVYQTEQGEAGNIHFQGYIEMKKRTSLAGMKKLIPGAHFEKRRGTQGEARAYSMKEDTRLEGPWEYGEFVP
Procedure: as §1

| Sequence | uncleaved DNA left (log2) |
| --- | --- |
| TGGGTCT | -0.0214 |
| ATAGGTG | 0.107 |
| TCTTAGA | 0.0936 |
| AGGACTC | -0.0534 |
| CGGACTT | -0.121 |
| CCCTGTG | 0.048 |
| TCGCGTA | -0.0864 |
| AATACGT | 0.0186 |
| GAACAAG | 0.156 |
| TACTAAG | 0.0995 |
| TGTCCGC | -0.0822 |
| AACCGTC | -0.0372 |
| TCAGCAA | -0.11 |
| AATTAAG | 0.109 |
| TCGATCG | -0.0621 |
| CTGTGCA | -0.00516 |
| CCTTCGT | 0.0332 |
| TTGGGAC | -0.0867 |
| GTCCCCA | -0.0329 |
| CTGGTCT | 0.0377 |

| Sequence | uncleaved DNA left (log2) |
| --- | --- |
| TCAATTT | -0.0227 |
| GCCTCTT | -0.023 |
| TCAGGAG | -0.0205 |
| TGCGTAT | -0.0924 |
| GGCTCTT | -0.0788 |
| AGGACAG | -0.0654 |
| ATCACCG | 0.0195 |
| TTCCACT | -0.151 |
| AATAGGA | 0.13 |
| TCCGGGT | -0.063 |
| ACGAATC | 0.106 |
| AAAGTTA | 0.0417 |
| TGGTTAG | 0.051 |
| CCATCTA | 0.0682 |
| TACTGCG | 0.0223 |
| CAGAGAA | -0.136 |
| GCGCCAG | 0.101 |
| ACTTAAT | -0.0497 |
| CCTCGTC | 0.0113 |
| TAAAGTA | -0.0195 |

tested on: T3, Rep nickase domain of maize striate mosaic virus; assay: as above
T3 sequence (Rep 1-117, printed without the tag): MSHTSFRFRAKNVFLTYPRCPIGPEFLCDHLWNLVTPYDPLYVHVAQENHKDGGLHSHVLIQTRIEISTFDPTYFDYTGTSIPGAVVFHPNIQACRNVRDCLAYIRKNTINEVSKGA
Procedure: as §1

| Sequence | uncleaved DNA left (log2) |
| --- | --- |
| TGGGTCT | 2.08 |
| ATAGGTG | -0.596 |
| TCTTAGA | -0.779 |
| AGGACTC | 1.86 |
| CGGACTT | 2.12 |
| CCCTGTG | -1.11 |
| TCGCGTA | -1.07 |
| AATACGT | -0.244 |
| GAACAAG | -0.877 |
| TACTAAG | -1.12 |
| TGTCCGC | -0.575 |
| AACCGTC | -0.978 |
| TCAGCAA | -0.955 |
| AATTAAG | -0.912 |
| TCGATCG | -1.14 |
| CTGTGCA | -0.997 |
| CCTTCGT | -1.08 |
| TTGGGAC | 2.19 |
| GTCCCCA | 1.67 |
| CTGGTCT | -0.286 |

| Sequence | uncleaved DNA left (log2) |
| --- | --- |
| TCAATTT | -0.682 |
| GCCTCTT | 0.156 |
| TCAGGAG | 0.198 |
| TGCGTAT | -0.872 |
| GGCTCTT | 1.7 |
| AGGACAG | 2.1 |
| ATCACCG | -0.931 |
| TTCCACT | -0.236 |
| AATAGGA | -0.158 |
| TCCGGGT | 1.55 |
| ACGAATC | -0.651 |
| AAAGTTA | -0.306 |
| TGGTTAG | -0.879 |
| CCATCTA | -0.642 |
| TACTGCG | 0.804 |
| CAGAGAA | -0.202 |
| GCGCCAG | 0.0917 |
| ACTTAAT | -0.808 |
| CCTCGTC | -0.773 |
| TAAAGTA | -0.917 |

From the supplement of paper PMC7826260
